Among all 420,000 compounds or so, about 64,000 (15%) were called active. Inconclusive means that the source gave no clear call. Such entries were picked first, then a sample of the others. The call rests on the fitted dose curve; in most records, active means well fitted inhibition curve with a large enough effect; inconclusive means small, poorly fitted or top-dose-only effect; inactive means flat fitted curve, though single readings scatter. No potency is given beside an inconclusive call; the fits are too rough.
assay: qHTS for Inhibitors of human tyrosyl-DNA phosphodiesterase 1 (TDP1): qHTS in cells in absence of CPT; conditions: DT40 Tdp1-/- hTDP1 cells, no CPT, ATP luminescence, 48 h; activity change, negative = growth inhibition: at 46.2 µM (top of the series) unless noted; further: nearly all actives have a fitted effect of over 55% in size
Outline: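 No-CPT arm: Tdp1-/-;hTDP1 DT40 cells (400/well) plus compounds, incubated ≥48 hr at 37 °C. Readout CellTiter-Glo luminescence.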
On the % scale 0 is the no-effect control and ±100 the full control effect; potency means the concentration at half of the fitted maximal effect; tags describe the fitted curve by direction and shape.

| Compound | Potency | activity change, negative = growth inhibition |
| --- | --- | --- |
| Cc1ccc(NC(=O)Cn2c(=O)c3cc(Cl)ccc3n3nncc23)cc1 | inactive | – |
| COc1ccccc1N(CCC#N)C(=O)CSc1ccc2c(c1)OCCO2 | inconclusive [inhibitor, single point] | – |
| O=[N+]([O-])c1nn(-c2ccc3c(c2)OCCO3)n(O)c1=NC1CCN(Cc2ccccc2)CC1 | inconclusive [inhibitor, single point] | – |
| COc1ccc(C(=O)NCCn2cc(SCC(=O)NCCc3ccc(OC)c(OC)c3)c3ccccc32)cc1 | active: 16.4 µM | – |
| CC(C(=O)Nc1ccc2c(c1)OCO2)c1ccc([N+](=O)[O-])cc1 (centres undefined) | inactive | – |
| COCCNCc1ccccc1[N+](=O)[O-] | inactive | – |
| O=C(NCCCCCCNC(=O)c1ccc(Br)s1)c1ccc(Br)s1 | inactive | – |
| OCCCNc1nc(-c2ccc(Cl)cc2)nc2ccccc12 | inconclusive [inhibitor, single point] | – |
| COc1ccccc1OCCCCCc1c(C)n[nH]c1C | inconclusive [inhibitor, single point] | – |
| CS(=O)(=O)c1ccc2nc(NC(=O)CCNC(=O)c3ccc(Cl)cc3)sc2c1 | inconclusive [inhibitor, single point] | – |
| CC1=C(c2ccc(C)c(C)c2)S(=O)(=O)N=C1N1CCC(C(=O)NCCc2ccco2)CC1 | inconclusive [inhibitor, single point] | – |
| Cc1noc(C)c1S(=O)(=O)NC(=O)C1(C)CCN1C(=O)CC(c1ccccc1)c1ccccc1 (centres undefined) | active: 20.6 µM | – |
| C#Cc1ccc(NC(=O)C2(C)CCN2C(=O)CC(c2ccccc2)c2ccccc2)cc1 (centres undefined) | inconclusive [inhibitor, single point] | – |
| CN1CCN(c2ccc(-c3cccc(NC(=O)COc4ccc(Cl)cc4)c3)nn2)CC1 | inconclusive [inhibitor, single point] | – |
| Cc1ccc(Sc2c(C(=O)Nc3ccc(F)cc3F)c(C(F)(F)F)nn2C)cc1 | inconclusive [inhibitor, single point] | – |
| CCCn1c(/C=C/c2ccco2)nc2ccccc21 | inconclusive [inhibitor, single point] | – |
| CCc1nnc(NC(=O)c2c(OC)cccc2OC)s1 | inactive | – |
| CSc1ncccc1C(=O)OCC(=O)NCCc1ccccc1 | inactive | – |
| Cc1cc(Br)cn2c(Cc3ccsc3)c(-c3cccc(Br)c3)nc12 | inactive | – |
| O=C(Cc1c(F)cccc1Cl)Nc1ccccc1N1CCCCC1 | inconclusive [inhibitor, single point] | – |
| CCCCC(=O)N1CCN(c2nc(-c3ccc(F)cc3)cs2)CC1 | inconclusive [inhibitor, single point] | – |
| Cc1ccc(C(=O)NCC(=O)N2CCN(c3cccc(Cl)c3)CC2)s1 | inconclusive [inhibitor, partial curve] | – |
| O=C(Nc1ccc2oc(Cc3ccc(Cl)cc3)nc2c1)c1cccnc1 | inconclusive [inhibitor, single point] | – |
| COc1cc(CN2CCCC(N3CCN(c4ccc(F)cc4)CC3)C2)ccc1F (centres undefined) | inconclusive [inhibitor, single point] | – |
| O=NNc1nc2ccccc2n1Cc1ccccc1 | active: 2.31 µM | – |
| CCNC(=S)N1CCN(Cc2ccc3c(c2)OCO3)CC1 | inactive | – |
| CN1CCN(/C(=N\O)c2nonc2N)CC1 | inconclusive [inhibitor, single point] | – |

| Compound | Potency | activity change, negative = growth inhibition |
| --- | --- | --- |
| CC(=O)NCCNc1ncnc2ccc(-c3c(C)noc3C)cc12 | inactive | – |
| COc1ccc(NS(=O)(=O)c2cc(NC(=O)COc3ccccc3F)ccc2OC)cc1 | inconclusive [inhibitor, single point] | – |
| CCc1ccc(Nc2n[n+](-c3ccccc3)c(-c3ccc(OCc4ccccc4)cc3)s2)cc1 | active: 5.17 µM | – |
| Cc1ccc(-c2cc(C(=O)N3CCN(S(=O)(=O)c4ccc(Br)cc4)CC3)[nH]n2)cc1C | active: 8.2 µM | – |
| Cc1ccc(Nc2nc(OC(C(F)(F)F)C(F)(F)F)nc(N3CCOCC3)n2)cc1 | active: 14.6 µM | – |
| Nc1nc2c(ncn2[C@@H]2O[C@H](CNCc3ccccc3)[C@@H](O)[C@H]2O)c(=O)[nH]1 | inconclusive [inhibitor, single point] | – |
| CCC(=O)NCC(c1ccc2c(c1)OCO2)N1CCN(c2ccccc2)CC1 (centres undefined) | inconclusive [inhibitor, partial curve] | – |
| O=C(NNC(=O)c1ccccc1[N+](=O)[O-])c1ccccn1 | inconclusive [inhibitor, single point] | – |
| CCOC(=O)c1oc2ccc(/C=N/O)c(Cl)c2c1C | inactive | – |
| Cc1cc(OCC(=O)NCc2ccccn2)c2c(C)cc(=O)oc2c1 | inactive | – |
| CN1CCN(C(=O)OCCOCCOC(=O)N2CCN(C)CC2)CC1 | inactive | – |
| CCn1c(SCC(=O)Nc2nonc2C)nnc1-c1ccoc1C | inactive | – |
| Cc1nc(N2CCN(c3ccccn3)CC2)c2c(C)c(C(=O)N3CCN(c4cccc(Cl)c4)CC3)sc2n1 | active: 20.6 µM | – |
| COc1ccc(Cl)cc1-n1c(C)ccc1C | inconclusive [inhibitor, single point] | – |
| CC(C)NC(=O)/C(C#N)=C\c1ccc(N(C)C)c(Br)c1 | inactive | – |
| O=C(CN1CCOCC1)N(c1ccccc1)c1ccc2ccccc2c1 | inconclusive [inhibitor, single point] | – |
| CCOc1ccc(NCc2cccn2-c2nnc(N3CCC(C(=O)NCCc4ccc(OC)c(OC)c4)CC3)s2)cc1 | active: 10.3 µM | – |
| CC(=O)COc1nc2c(c(-c3ccco3)c1C#N)CCc1ccccc1-2 | inconclusive [inhibitor, single point] | – |
| CCNC(=O)C1(C)CCN1CCC(=O)c1ccc(C)cc1 (centres undefined) | active: 16.4 µM | – |
| Fc1ccccc1CSc1ncnc2sc3c(c12)CCCC3 | – | inconclusive: -34.7% [inhibitor] |
| COc1ccc(C(=O)O)cc1S(=O)(=O)NC(C)C | inactive | – |
| Cc1nc2ccccc2c(=O)n1-c1ccc(NC(=O)c2ccc([N+](=O)[O-])cc2)cc1 | inconclusive [inhibitor, partial curve] | – |
| O=C1C(Cc2ccc(F)cc2)SC(=Nc2ccccc2)N1c1ccccc1 (centres undefined) | active: 23.1 µM | – |
| CCC(=O)Nc1c(S(=O)(=O)c2ccccc2)c2nc3ccccc3nc2n1Cc1ccccc1 | inconclusive [inhibitor, single point] | – |
| COc1ccccc1C(C)NC(=O)c1ccc(C)o1 (centres undefined) | inconclusive [inhibitor, single point] | – |
| CCCS(=O)(=O)N1CCCC(C(=O)NCCCOC)C1 (centres undefined) | inactive | – |
| O=C(CNC(=O)c1ccc2ccccc2c1)NCc1ccc(F)cc1 | inconclusive [inhibitor, partial curve] | – |

| Compound | Potency | activity change, negative = growth inhibition |
| --- | --- | --- |
| Cc1nn(C(C)C)c(C)c1CN1CCN(Cc2ccsc2)C(CCO)C1 (centres undefined) | inactive | – |
| CCCCNC(=O)C(NC(=O)c1cnc(C)cn1)C(=O)c1ccccc1 (centres undefined) | inactive | – |
| Cn1c(SCCCC(=O)c2ccc(Br)cc2)nnc1-c1ccncc1 | inconclusive [inhibitor, single point] | – |
| O=C(C(=O)N1CCN(c2ccccc2Cl)CC1)c1c[nH]c2ccccc12 | inconclusive [inhibitor, single point] | – |
| CCOC(=O)c1ccc(NC(=O)c2nc[nH]c2C(=O)N[C@@H](C)C(=O)OC(C)(C)C)cc1 | inconclusive [inhibitor, single point] | – |
| Cc1cc(C)c2c(CN3CCCCC3C)cc(=O)oc2c1 (centres undefined) | – | inconclusive: -31.2% [inhibitor] |
| COc1ccc(C(=O)Nc2nnc(S(=O)(=O)N(C)c3ccc(Cl)cc3)s2)cc1OC | inconclusive [inhibitor, single point] | – |
| CC1NC(=S)N(Cc2ccccc2)C1=O (centres undefined) | inactive | – |
| O=C1OCCC1Sc1nnc(-c2ccccc2Br)n1Cc1ccccc1 (centres undefined) | inactive | – |
| Cc1ccccc1CNC(=O)C(=O)NCC(c1ccco1)S(=O)(=O)c1ccccc1 (centres undefined) | inconclusive [inhibitor, partial curve] | – |
| Cc1c(Cc2ccccc2)c(=O)oc2cc(OCC(=O)N3CCC(C(=O)O)CC3)ccc12 | inactive | – |
| O=S(=O)(c1ccc(Br)cc1)c1nc(-c2ccco2)oc1NCC1CCCO1 (centres undefined) | inactive | – |
| CCN=C1SC(CC(=O)NC(C)c2ccccc2)C(=O)N1CC (centres undefined) | inactive | – |
| COc1ccc(NC(=O)c2cc(-c3ccco3)nc3ccccc23)cn1 | active: 20.6 µM | – |
| Cc1csc(N(C)C(=O)CSc2nnc(COc3ccccc3C)o2)n1 | inactive | – |
| O=C(COC(=O)CCC(=O)c1cccs1)NC1CC1 | inactive | – |
| COCCNC(=O)CN1CCN(Cc2cccc(Cl)c2)C1=O | inactive | – |
| c1ccc(CNc2ncncc2-c2ccoc2)cc1 | inconclusive [inhibitor, single point] | – |
| O=C(COc1ccc2ccccc2c1)N[C@@H](C(=O)O)c1ccc(O)cc1 | inactive | – |
| COc1cc(/C=C(\C#N)C(=O)NCC2CCCO2)ccc1OCC(=O)O (centres undefined) | – | inconclusive: -35.5% [inhibitor] |
| C#CCN1C(=O)C(O)(CC(=O)/C=C/C=C/c2ccccc2)c2ccccc21 (centres undefined) | active: 23.1 µM | – |
| CC(=O)O[C@H]1CC[C@@]2(C)C(CCC3C2CC[C@]2(C)OC(=O)CCC32)C1 (some centres undefined) | inactive | – |
| C/C(=N\O)c1noc(C)c1C(=O)Nc1nccs1 | – | inconclusive: -30.3% [inhibitor] |
| O=C(NCc1ccccc1Cl)c1cc2ccccc2o1 | inactive | – |
| N#Cc1c(NC2CCCCC2)nc(-c2ccco2)c2c1CCCC2 | inconclusive [inhibitor, partial curve] | – |

From PubChem BioAssay AID686978 (National Center for Advancing Translational Sciences (NCATS), 2013)
